Assay results as given in PubChem BioAssay AID686971 (National Center for Advancing Translational Sciences (NCATS), 2013).
The whole screen tested about 360,000 compounds, of which about 7,500 (2.1%) were called active. Inconclusive means that the source gave no clear call. Such entries were picked first, then a sample of the others. The call rests on the fitted dose curve; in most records, active means well fitted cell-killing curve with a large enough effect; inconclusive means small, poorly fitted or top-dose-only effect, or effect the other way, or another doubt; inactive means no such curve, though single readings can be large or run the other way. No potency is given beside an inconclusive call; the fits are too rough.

test: qHTS for induction of synthetic lethality in tumor cells producing 2HG: qHTS for the HT-1080-IDH1KD cell line; conditions: HT-1080 IDH1 knockdown viability, ATP luminescence, 48 h; activity, negative = toxicity: at 46.1 µM (top of the series) unless noted;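 on activity, negative = toxicity: 0% = DMSO wells and -100% = cell-free medium wells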
How it was run: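 HT-1080-IDH1KD cells (IDH1 knocked down), 750/well in RPMI with 5% FBS, treated with compound 48 h at 37 degrees C. Viability by CellTiter-Glo luminescence, normalised to DMSO and no-cell wells; concentration-response curves classed.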
Potency means the concentration at half of the fitted maximal effect; tags describe the fitted curve by direction and shape.

Row | SMILES | Potency | activity, negative = toxicity
1 | CN(C)S(=O)(=O)c1cccc(NC(=O)CSc2cccc3cccnc23)c1 | inconclusive [cytotoxic, single point] | 
2 | Clc1ccc(CSc2nnc(CNc3cccc(Cl)c3)o2)cc1 | inconclusive [cytotoxic, single point] | 
3 | CC1CC(C)(C)N(C(=O)CSc2ccc(-c3ccc(F)cc3)nn2)c2ccccc21 (stereo unspecified) | inconclusive [cytotoxic, partial curve, poor fit] | 
4 | Cn1cccc1C1NC(=O)c2c(sc3c2CCC(C(C)(C)C)C3)N1 (stereo unspecified) | inactive | 
5 | C[C@H](O)[C@@H]1CN2CCc3c([nH]c4ccccc34)[C@@H]2C[C@@H]1N(C)C(=O)c1ccco1 | inconclusive [cytotoxic, partial curve] | 
6 | O=c1c2ccccc2sc2nc(CCl)nn12 | active: 4.61 µM | 
7 | COc1cccc(-c2nc(-c3ccccn3)no2)c1 | inconclusive [cytotoxic, single point] | 
8 | CC(=O)NC(c1cccc(F)c1)c1nc(-c2ccc3ccccc3c2)cs1 (stereo unspecified) | inconclusive [cytotoxic, single point] | 
9 | COc1ccc(CNc2nc(NCc3ccc(OC)c(OC)c3)n(C(=O)c3cccs3)n2)cc1OC | inconclusive [cytotoxic, single point] | 
10 | O=C(Nc1ccc(N2CCOCC2)cc1)c1ccc([N+](=O)[O-])o1 | active: 5.17 µM | 
11 | O=C1N[C@@H](c2ccccc2)COC(=O)[C@@H](Cc2ccc(F)cc2)C/C=C\C[C@H]1CC(=O)N(CCO)Cc1ccccc1 | inconclusive [cytotoxic, single point] | 
12 | C/C(CC1(O)/C(=N/O)CCc2nonc21)=N\O (stereo unspecified) | inconclusive [rising, single point] | 
13 | COc1ccc(C(=O)N2CCC(c3ccccc3)CC2)c(OC)c1OC | inactive | 
14 | O=C(NCCSc1ccc(Br)cc1)c1ccc2nc[nH]c2c1 | inconclusive [cytotoxic, partial curve] | 
15 | COc1ccc(-n2ncc(Cl)c(Cl)c2=O)cc1 | active: 8.2 µM | 
16 | CCN(CCO)C(=O)c1ccc2nc(Cc3ccc(OC)cc3)oc2c1 | inactive | 
17 | CS(=O)(=O)c1cccc(C(=O)Nc2ccc(-c3nc4ccccc4[nH]3)cc2)c1 | active: 11.6 µM | 
18 | Cn1c(=O)[nH]c(=O)c2c1nc(Br)n2C/C=N/Nc1ccccc1 | active: 5.8 µM | 
19 | CCN(c1ccccc1)S(=O)(=O)c1ccc(C(=O)Nc2nnc(CSC)o2)cc1 | inconclusive [cytotoxic, partial curve] | 
20 | CCCCNC(=O)c1cc(-c2ccc(F)cc2)on1 | inconclusive [cytotoxic, single point] | 
21 | Oc1ccc(Cc2ccc(Cl)cc2)c(O)c1 | inactive | 
22 | CSc1nc(C)cc(OCC(=O)N/N=C/c2ccccc2O)n1 | inconclusive [cytotoxic, full curve] | 
23 | FC(F)(F)c1ccc(NCCc2ccccc2)nc1 |  | inconclusive: 33.6%

Row | SMILES | Potency | activity, negative = toxicity
24 | O=C1Nc2cc(C(=O)NCCN3CCCCCC3)ccc2S/C1=C\c1ccccc1 | inconclusive [cytotoxic, single point] | 
25 | COc1cc2c(cc1NC(=O)C(Cl)Cl)-c1ccc(NC(=O)C(Cl)Cl)cc1C2 | active: 13 µM | 
26 | CCOC(=O)c1c(NC(=S)N2CCOCC2)sc2c1CCN(C(=O)OCC)C2 | active: 11.6 µM | 
27 | CCc1nc2ccc(Cc3ccc4nc(CC)[nH]c4c3)cc2[nH]1 | inactive | 
28 | O=c1[nH]c2ccccc2c2nc(-c3cccc(S(=O)(=O)N4CCCC4)c3)nn12 | inactive | 
29 | Cc1cc(C(=O)Nc2ccc3c(c2)OCO3)no1 | active: 20.6 µM | 
30 | O=[N+]([O-])c1ccc2c(c1)C(N1CCN(CCO)CC1)Cc1ccc(F)cc1S2 (stereo unspecified) | active: 16.4 µM | 
31 | C=CCOC1COC2C(OCC=C)COC12 (stereo unspecified) | inactive | 
32 | COc1ccccc1C(=O)O/N=C(\N)c1ccccn1 | inconclusive [cytotoxic, partial curve] | 
33 | COc1ccc(C(C(=O)Nc2ccc3c(c2)OCO3)N(C)C(=O)Cc2c[nH]c3ccccc23)cc1 (stereo unspecified) | inconclusive [cytotoxic, single point] | 
34 | C=CC[C@@H](CC(=O)N[C@H](CO)Cc1ccccc1)C(=O)N[C@H](COC(=O)[C@@H](CC=C)CC(=O)OC(C)(C)C)Cc1c[nH]c2ccccc12 | inconclusive [cytotoxic, single point] | 
35 | CN(N=Nc1nc[nH]c1C(N)=O)C1CCCCC1 | inconclusive [cytotoxic, full curve] | 
36 | Cc1cc(NC(=O)CCCSc2nc(-c3ccco3)cc(C(F)(F)F)n2)no1 | inactive | 
37 | CCOc1cc(/C=N/O)ccc1OCc1ccc(C)cc1 | inconclusive [cytotoxic, single point] | 
38 | Nc1nc2c(nnn2C2CC(O)C(CO)O2)c(=O)[nH]1 (stereo unspecified) | active: 5.17 µM | 
39 | COc1cc(/C=N/NC(=O)c2ccc(CN3C(=O)c4cccc5cccc3c45)cc2)cc(OC)c1O | inconclusive [cytotoxic, single point] | 
40 | CCC1=NN=C(c2ccc(F)cc2)C(c2c[nH]c3ccccc23)N1O (stereo unspecified) | inactive | 
41 | CCOC(=O)c1c(N)sc2c(OCC)c(Br)ccc12 | inconclusive [cytotoxic, single point] | 
42 | COc1cc(Cl)ccc1OC1(C)CCN(Cc2ccc(-c3ccccn3)cc2)C1 (stereo unspecified) | inconclusive [cytotoxic, single point] | 
43 | CCOC(=O)N1CCN(C2=C(NS(=O)(=O)c3ccc(C)cc3)C(=O)c3ccccc3C2=O)CC1 | inconclusive [cytotoxic, partial curve, poor fit] | 
44 | C=CCn1c(C)cc(C(=O)COC(=O)/C=C/c2cccc(OC)c2)c1C | inactive | 
45 | Cc1cnc(CNC(=O)c2csc([C@@H]3C[C@H](O)[C@@H](CO)O3)n2)cn1 | inconclusive [rising, single point] | 
46 | O=C(Nc1cccc(C(=O)N2CCCc3ccccc32)c1)c1ccccc1 | active: 23.1 µM | 
